# Data from paper PMC4336329 (PLoS ONE, 2015).
# Among all 310,000 compounds or so, about 14,000 (4.5%) showed an effect of 50% or more. Effects have a minus sign here. This is one part of the list.
# Target: human ether-à-go-go-related gene (hERG) potassium channel (human, UniProt Q12809)
# Assay: primary screen, population patch clamp on CHO cells stably expressing hERG
# 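Note: peak tail current of the secondary pulse compared with the same well before compound.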
# human ether-à-go-go-related gene (hERG) potassium channel, sequence (Q12809 whole entry, looked up): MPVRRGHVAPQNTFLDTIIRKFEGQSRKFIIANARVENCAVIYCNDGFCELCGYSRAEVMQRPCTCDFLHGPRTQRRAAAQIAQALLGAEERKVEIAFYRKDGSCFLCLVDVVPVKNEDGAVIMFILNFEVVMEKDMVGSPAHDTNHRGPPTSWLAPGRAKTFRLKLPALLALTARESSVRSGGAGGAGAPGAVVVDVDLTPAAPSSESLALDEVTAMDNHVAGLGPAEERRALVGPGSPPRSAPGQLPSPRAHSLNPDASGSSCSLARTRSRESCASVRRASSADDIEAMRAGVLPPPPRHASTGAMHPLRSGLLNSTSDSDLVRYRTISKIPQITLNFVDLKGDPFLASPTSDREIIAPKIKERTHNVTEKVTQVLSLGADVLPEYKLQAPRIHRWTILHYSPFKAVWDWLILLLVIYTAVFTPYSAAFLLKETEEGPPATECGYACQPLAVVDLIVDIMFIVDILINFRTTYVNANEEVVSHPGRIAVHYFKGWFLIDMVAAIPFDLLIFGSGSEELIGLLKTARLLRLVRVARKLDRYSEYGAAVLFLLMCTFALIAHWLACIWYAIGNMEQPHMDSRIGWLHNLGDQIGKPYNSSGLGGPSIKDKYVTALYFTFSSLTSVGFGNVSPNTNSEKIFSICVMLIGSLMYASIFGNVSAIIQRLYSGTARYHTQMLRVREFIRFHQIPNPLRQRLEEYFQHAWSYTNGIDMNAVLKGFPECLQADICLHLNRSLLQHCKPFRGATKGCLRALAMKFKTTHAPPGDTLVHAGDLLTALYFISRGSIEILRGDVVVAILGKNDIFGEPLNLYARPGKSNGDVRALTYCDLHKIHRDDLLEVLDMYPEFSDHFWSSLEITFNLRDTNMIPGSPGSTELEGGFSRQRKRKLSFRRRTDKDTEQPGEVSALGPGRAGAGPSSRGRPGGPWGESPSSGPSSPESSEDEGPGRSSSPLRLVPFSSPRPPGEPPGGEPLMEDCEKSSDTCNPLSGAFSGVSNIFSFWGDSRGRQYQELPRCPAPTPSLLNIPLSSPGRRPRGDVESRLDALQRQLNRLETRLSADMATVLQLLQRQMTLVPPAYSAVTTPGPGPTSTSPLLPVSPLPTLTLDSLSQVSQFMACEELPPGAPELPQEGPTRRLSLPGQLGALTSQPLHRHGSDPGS
row,SMILES,"hERG current change (%, negative = inhibition) at 10uM [%]"
1,CCOc1ccc(OCC)c(S(=O)(=O)n2ccnc2C)c1,11.5
2,Cc1nn(Cc2ccc(F)cc2)c(C)c1NC(=O)c1cccnc1Cl,7.72
3,CCOC(=O)c1c(NC(=O)C2CCCO2)sc(C(N)=O)c1C (stereo not shown),2.64
4,Cc1cc2ccccc2c(=O)n1CC(=O)NCCC1=CCCCC1,8.01
5,COc1ccc(C(=O)C2CCCN(C(=O)c3ccc(OC)o3)C2)c(C)c1 (stereo not shown),-24.3
6,Cc1ccc(-c2nc(C#N)c(NCc3cccc4c3OCO4)o2)cc1,-13.9
7,Cc1[nH]n(-c2ccccc2)c(=O)c1C(=O)c1ccccc1,8.7
8,CC(C)Cn1c(-c2cccs2)nc2ccccc21,-23.3
9,COc1ccc(CNCCc2c[nH]c3ccccc23)c(OC)c1OC.O=C(O)C(=O)O,-7.44
10,Cc1ccnc(NC(=O)CCC(=O)N(CC(=O)NC(C)(C)C)Cc2ccc3c(c2)OCO3)c1,1.71
11,COc1cc(NC(=O)c2ccccc2Cl)c2ncccc2c1,-2.71
12,CCOc1ccc(S(=O)(=O)NCCC(=O)NCC2CCCO2)cc1 (stereo not shown),8.51
13,COC(=O)COc1ccc(S(=O)(=O)Nc2ccc3c(c2)OCO3)cc1,11.6
14,CCn1nc(C)cc1C(=O)N1CCCC(C(=O)c2ccc(OC)cc2C)C1 (stereo not shown),3.32
15,O=C(CCc1ccccc1)N1CCN(c2ccccn2)CC1,-9.9
16,O=C(Cn1cccn1)N1CCCC(Nc2ccc(F)c(F)c2)C1 (stereo not shown),-30.9
17,O=C(NC(=S)Nc1ncccn1)c1ccc(Cl)cc1Cl,16.1
18,CCOC(=O)c1cc(-c2cccs2)nc2onc(C)c12,9.35
19,CCOc1cc(N2CCOCC2)c(OCC)cc1NC(=O)c1ccc2ncsc2c1,11.3
20,Cc1ccc(/C=C/S(=O)(=O)NCC(=O)OCC(=O)Nc2ccc(C(N)=O)cc2)cc1,-14.2
21,COc1ccc(C2CC(c3c(O)cc(C)oc3=O)=NCCS2)c(OC)c1 (stereo not shown),-10.7
22,Cc1nc(N2CCN(c3ccccc3O)CC2)c2c(-c3ccccc3)csc2n1,10.3

row,SMILES,"hERG current change (%, negative = inhibition) at 10uM [%]"
1,NC(=O)c1ccsc1NC(=O)c1ccc(S(=O)(=O)N2CCCCC2)cc1,-31.5
2,Cc1cc(C)nc(N2CCC(C(=O)Nc3ccc4c(c3)OCO4)CC2)n1,-5.31
3,Cc1cccc(C)c1NC(=O)c1cc2c(=O)c3ccccc3oc2nc1C(F)(F)F,-3.38
4,COc1ccc(C)cc1NS(=O)(=O)c1ccc(Cl)nc1,-9.58
5,CCc1ccc(NC(=O)C(=O)NCCN2CCN(C(=O)c3ccco3)CC2)cc1,-67
6,COc1ccc(S(=O)(=O)Nc2ccc(F)c(F)c2)cc1C(=O)N1CCOCC1,13.3
7,O=C1/C(=C/c2cccs2)SC(=S)N1CCC(=O)N1CCCCC1CCO (stereo not shown),5.57
8,CC(=O)Nc1ccc(S(=O)(=O)N(C)CC(=O)OCC(=O)Nc2cc(C)on2)cc1,7.03
9,Cn1c(C(C#N)C(=O)c2ccco2)nc2ccccc21 (stereo not shown),14.6
10,O=C(NC1CC1)C1CCN(S(=O)(=O)c2ccc(Cl)c([N+](=O)[O-])c2)CC1,-14.1
11,CCc1nc(SCC(=O)c2c[nH]c3ccccc23)n[nH]1,15.7
12,O=C1NC(=S)S/C1=C/c1ccc(OC(=O)c2ccco2)cc1,14
13,CCN(CC)C(=O)c1ccc(-c2ccccc2)cc1,-1.32
14,NS(=O)(=O)c1ccc(N/N=C/c2ccc[nH]2)c([N+](=O)[O-])c1,0.228
15,Cc1nc(SCC(=O)N2CCN(c3ccccc3)CC2)c2oc3ccccc3c2n1,-48
16,CC(C)c1nc2sc3c(SCC(N)=O)ncnc3c2c2c1CCC2,11.9
17,CCC[C@H](N[C@@H](C)C(=O)N1[C@H](C(=O)O)C[C@@H]2CCCC[C@@H]21)C(=O)OCC,9.19
18,CCOCCCNC(=O)C(c1ccc(OC)cc1)N(Cc1ccc2c(c1)OCO2)C(=O)c1cnccn1 (stereo not shown),8.96
19,CCCC(=O)n1nc(-c2ccccc2)nc1N,15.4
20,C#CCOCCOCCOCCNc1nc(N2CCN(C(=O)[C@H](Cc3ccc(O)cc3)n3cc([C@@H](N)CC(C)C)nn3)CC2)nc(N2CCN(C(=O)[C@H](Cc3cc4ccccc4[nH]3)n3cc([C@@H](N)CC(C)C)nn3)CC2)n1.Cl,6.67
21,Cc1cc(=O)oc2cc(OCC(O)CN3CCN(c4ccccc4)CC3)ccc12.Cl (stereo not shown),-47.4
